Data on two substances can be found in article PMC9060002.

Amino acid sequences for entries named in this document (tags omitted). A change or cut given only in a name is not applied to a line headed by its entry. Chains listed by the source or under a name are the forms on record and can include a tag or linker.
UniProt P13569: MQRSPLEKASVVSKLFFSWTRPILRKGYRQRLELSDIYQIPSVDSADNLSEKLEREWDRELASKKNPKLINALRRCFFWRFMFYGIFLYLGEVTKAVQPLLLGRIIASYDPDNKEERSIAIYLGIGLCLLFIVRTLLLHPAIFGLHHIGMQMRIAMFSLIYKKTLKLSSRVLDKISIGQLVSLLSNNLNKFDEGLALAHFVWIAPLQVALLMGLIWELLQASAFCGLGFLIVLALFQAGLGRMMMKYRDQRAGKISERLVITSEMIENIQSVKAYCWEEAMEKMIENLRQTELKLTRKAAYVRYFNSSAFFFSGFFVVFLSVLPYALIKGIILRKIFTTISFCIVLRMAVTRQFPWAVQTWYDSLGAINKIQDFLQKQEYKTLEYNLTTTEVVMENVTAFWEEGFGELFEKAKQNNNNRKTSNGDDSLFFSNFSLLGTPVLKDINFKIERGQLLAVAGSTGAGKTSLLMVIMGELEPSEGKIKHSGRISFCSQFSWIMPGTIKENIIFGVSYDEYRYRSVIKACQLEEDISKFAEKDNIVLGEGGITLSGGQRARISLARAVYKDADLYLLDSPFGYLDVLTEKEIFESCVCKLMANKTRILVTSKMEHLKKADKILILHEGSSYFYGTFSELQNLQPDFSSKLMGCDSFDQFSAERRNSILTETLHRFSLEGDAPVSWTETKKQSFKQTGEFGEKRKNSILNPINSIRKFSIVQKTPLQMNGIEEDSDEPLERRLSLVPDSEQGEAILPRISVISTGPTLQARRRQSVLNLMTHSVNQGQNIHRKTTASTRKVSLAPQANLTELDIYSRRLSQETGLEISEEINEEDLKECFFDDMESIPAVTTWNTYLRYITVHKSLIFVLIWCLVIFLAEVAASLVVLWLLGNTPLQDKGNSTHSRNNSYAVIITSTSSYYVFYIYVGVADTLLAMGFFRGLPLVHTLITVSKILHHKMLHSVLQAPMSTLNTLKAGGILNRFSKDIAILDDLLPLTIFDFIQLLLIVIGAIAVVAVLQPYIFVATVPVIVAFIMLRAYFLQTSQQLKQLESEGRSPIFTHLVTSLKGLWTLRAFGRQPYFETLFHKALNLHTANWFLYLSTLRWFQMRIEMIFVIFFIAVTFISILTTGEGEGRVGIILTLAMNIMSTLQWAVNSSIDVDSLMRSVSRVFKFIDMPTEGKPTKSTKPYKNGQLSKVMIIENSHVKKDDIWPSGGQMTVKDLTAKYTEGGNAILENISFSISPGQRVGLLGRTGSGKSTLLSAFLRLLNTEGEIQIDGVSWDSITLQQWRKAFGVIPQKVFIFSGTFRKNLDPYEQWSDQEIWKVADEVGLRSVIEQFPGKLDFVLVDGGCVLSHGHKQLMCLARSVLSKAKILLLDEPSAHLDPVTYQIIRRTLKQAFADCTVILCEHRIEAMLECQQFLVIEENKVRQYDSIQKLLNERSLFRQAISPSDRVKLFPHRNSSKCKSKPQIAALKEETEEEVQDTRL
F508del-CFTR (CFTR with deletion of phenylalanine 508) (P13569, form named): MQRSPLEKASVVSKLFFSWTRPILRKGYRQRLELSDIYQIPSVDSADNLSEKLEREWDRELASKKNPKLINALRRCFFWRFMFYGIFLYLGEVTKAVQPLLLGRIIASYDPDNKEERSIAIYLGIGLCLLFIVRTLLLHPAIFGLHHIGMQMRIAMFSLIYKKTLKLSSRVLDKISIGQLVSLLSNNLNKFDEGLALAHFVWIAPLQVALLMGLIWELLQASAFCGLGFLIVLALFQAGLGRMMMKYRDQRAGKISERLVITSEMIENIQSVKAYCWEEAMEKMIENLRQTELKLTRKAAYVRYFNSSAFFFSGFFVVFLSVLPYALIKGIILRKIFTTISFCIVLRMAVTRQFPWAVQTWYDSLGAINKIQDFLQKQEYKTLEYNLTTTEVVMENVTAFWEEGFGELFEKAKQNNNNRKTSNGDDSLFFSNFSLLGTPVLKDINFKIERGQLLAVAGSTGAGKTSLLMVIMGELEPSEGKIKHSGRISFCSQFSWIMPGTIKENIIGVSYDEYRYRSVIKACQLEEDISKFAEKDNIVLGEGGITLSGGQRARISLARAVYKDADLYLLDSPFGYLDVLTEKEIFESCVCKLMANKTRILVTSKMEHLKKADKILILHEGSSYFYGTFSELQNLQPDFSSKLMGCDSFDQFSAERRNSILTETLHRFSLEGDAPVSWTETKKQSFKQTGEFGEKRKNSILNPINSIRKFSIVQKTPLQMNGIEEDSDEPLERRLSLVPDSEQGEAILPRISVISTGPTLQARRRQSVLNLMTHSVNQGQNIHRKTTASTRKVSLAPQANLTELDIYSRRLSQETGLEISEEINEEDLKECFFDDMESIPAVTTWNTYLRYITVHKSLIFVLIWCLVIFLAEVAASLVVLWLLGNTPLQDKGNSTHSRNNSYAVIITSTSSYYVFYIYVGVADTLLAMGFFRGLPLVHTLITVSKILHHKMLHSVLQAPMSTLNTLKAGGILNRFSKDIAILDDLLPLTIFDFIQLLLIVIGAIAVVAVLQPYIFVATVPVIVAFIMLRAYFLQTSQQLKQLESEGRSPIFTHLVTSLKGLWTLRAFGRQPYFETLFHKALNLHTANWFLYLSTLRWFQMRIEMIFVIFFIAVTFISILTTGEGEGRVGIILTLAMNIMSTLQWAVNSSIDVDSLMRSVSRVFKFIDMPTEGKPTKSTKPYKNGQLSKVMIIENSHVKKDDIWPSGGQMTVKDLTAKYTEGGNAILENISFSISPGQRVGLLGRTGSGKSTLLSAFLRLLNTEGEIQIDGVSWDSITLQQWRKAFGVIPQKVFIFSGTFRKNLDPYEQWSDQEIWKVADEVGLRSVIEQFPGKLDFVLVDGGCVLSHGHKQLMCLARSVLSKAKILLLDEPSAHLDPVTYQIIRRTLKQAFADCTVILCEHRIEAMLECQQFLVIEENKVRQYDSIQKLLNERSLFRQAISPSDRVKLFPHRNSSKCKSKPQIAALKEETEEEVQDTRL
UniProt Q15672: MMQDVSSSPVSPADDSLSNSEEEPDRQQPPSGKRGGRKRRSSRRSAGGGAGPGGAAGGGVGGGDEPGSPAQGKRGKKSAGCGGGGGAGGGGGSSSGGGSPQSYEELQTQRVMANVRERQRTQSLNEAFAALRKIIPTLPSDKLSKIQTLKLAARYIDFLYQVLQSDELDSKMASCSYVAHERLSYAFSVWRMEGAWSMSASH
UniProt P46937: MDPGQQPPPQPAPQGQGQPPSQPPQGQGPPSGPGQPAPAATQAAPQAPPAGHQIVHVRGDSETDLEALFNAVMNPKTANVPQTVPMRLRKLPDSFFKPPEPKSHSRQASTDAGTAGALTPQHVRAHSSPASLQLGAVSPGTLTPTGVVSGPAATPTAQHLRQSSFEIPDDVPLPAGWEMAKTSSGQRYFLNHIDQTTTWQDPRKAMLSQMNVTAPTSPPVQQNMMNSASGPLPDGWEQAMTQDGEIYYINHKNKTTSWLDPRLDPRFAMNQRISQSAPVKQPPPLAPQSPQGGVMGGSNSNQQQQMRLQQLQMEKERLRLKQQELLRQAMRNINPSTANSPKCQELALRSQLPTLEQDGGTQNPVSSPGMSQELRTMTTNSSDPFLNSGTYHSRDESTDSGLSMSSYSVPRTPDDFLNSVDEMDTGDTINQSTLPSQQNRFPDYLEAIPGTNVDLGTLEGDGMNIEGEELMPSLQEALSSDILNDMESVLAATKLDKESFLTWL

Results are given in words; binding and its absence hold for the method and conditions named. In cells and extracts the contact can be indirect. Some binding calls cover weakened binding; strength is not graded here.

What all share (test): co-IP; CFBE wt- and F508del-CFTR cells lysed in Triton lysis buffer (25 mM Tris-HCl pH 7.4, 150 mM NaCl, 1% Triton X-100); pre-cleared supernatants incubated overnight at 4°C with anti-YAP1, anti-CFTR or anti-TWIST1 antibodies crosslinked to Protein G agarose beads; washes with 300 mM NaCl; Western blot; qualitative
In test [1] the target is F508del-CFTR (CFTR with deletion of phenylalanine 508) (human) (UniProt P13569).
The target of test [2] is wt-CFTR (cystic fibrosis transmembrane conductance regulator, wild type) (human) (UniProt P13569).
The target in test [3] is TWIST1 (human (endogenous in CFBE)) (UniProt Q15672).

In the case of TWIST1 (from UniProt Q15672 1-202), the binding result in test [1] and in test [2] was “binds” in each case.
On to “Yes-associated protein 1 (YAP1) (from UniProt P46937 1-504)”, for which the values for the binding result in test [1], in test [2] and in test [3] were “binds”, “no binding” and “no binding”, respectively.
